The other results are listed elsewhere or left out.

The target in this assay is T1, MBP-FoxP1dN (Mus musculus, UniProt P58462 326-579).
T1 sequence: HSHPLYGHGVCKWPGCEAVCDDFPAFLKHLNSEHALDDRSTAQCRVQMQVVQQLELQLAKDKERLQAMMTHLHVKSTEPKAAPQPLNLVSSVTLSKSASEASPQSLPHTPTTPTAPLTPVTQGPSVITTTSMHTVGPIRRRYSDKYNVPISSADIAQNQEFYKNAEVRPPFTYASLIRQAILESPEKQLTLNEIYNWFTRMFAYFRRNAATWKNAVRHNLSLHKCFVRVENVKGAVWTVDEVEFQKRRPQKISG
The experiment in a line: PD-seq (MBP pull-down with sequencing); 20 mM Tris-HCl pH 7.5, 100 mM NaCl, 1.5 mM MgCl2, 0.4 uM protein, 0.1 uM dsDNA library, 30 min, room temperature, amylose pull-down; high values mean tight binding. The conditions noted are these: protein: recombinant; tags: His6-MBP; chain copies: 2; dsDNA, one strand shown. The method, boiled down: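 Binding is given as reads-per-million enrichment, pull-down over input, with replicates pooled. The bait was an N-terminus-lacking mouse FoxP3 or FoxP1 fragment with a His6-MBP tag, expressed in E. coli and used at 0.4 µM with 0.1 µM Klenow-filled degenerate double-stranded DNA library for 30 min at room temperature in Tris pH 7.5 buffer with NaCl and MgCl2. Amylose resin pull-down with three washes was followed by proteinase K release, PCR barcoding and Illumina sequencing.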
Take “GATGATTGTTCTCCCAGCTGATGAATTGTCACCGTCGAGTAAACAAATTTTCCTAATCTTTCTGTTCAAGCGCCATCTAC”: the binding signal is 1.01 RPM ratio (pull-down/input).
On to “GATGATTGTTCTCCCAGCTGATGAATTAATGTCTTCGAGTAAACAAATTTTCCTAATCTTTCTGTTCAAGCGCCATCTAC”, for which the binding signal is 0.97 RPM ratio (pull-down/input).
The same measure for “GATGATTGTTCTCCCAGCTGATGAATTTATGGACTCGAGTAAACAAATTTTCCTAATCTTTCTGTTCAAGCGCCATCTAC”: 0.992 RPM ratio (pull-down/input); for “GATGATTGTTCTCCCAGCTGATGAATTATGGACCTCGAGTAAACAAATTTTCCTAATCTTTCTGTTCAAGCGCCATCTAC”: 0.852 RPM ratio (pull-down/input); for “GATGATTGTTCTCCCAGCTGATGAATTATCTAAATCGAGTAAACAAATTTTCCTAATCTTTCTGTTCAAGCGCCATCTAC”: 1.18 RPM ratio (pull-down/input).
“GATGATTGTTCTCCCAGCTGATGAATTGCGAGTTTCGAGTAAACAAATTTTCCTAATCTTTCTGTTCAAGCGCCATCTAC”: the binding signal is 1.08 RPM ratio (pull-down/input).
Regarding “GATGATTGTTCTCCCAGCTGATGAATTATGGGTGTCGAGTAAACAAATTTTCCTAATCTTTCTGTTCAAGCGCCATCTAC”, the binding signal was 0.913 RPM ratio (pull-down/input).
To “GATGATTGTTCTCCCAGCTGATGAATTTAGTAGCTCGAGTAAACAAATTTTCCTAATCTTTCTGTTCAAGCGCCATCTAC” belongs 0.946 RPM ratio (pull-down/input).
To “GATGATTGTTCTCCCAGCTGATGAATTGATTTAATCGAGTAAACAAATTTTCCTAATCTTTCTGTTCAAGCGCCATCTAC” belongs 1.12 RPM ratio (pull-down/input); to “GATGATTGTTCTCCCAGCTGATGAATTCATTGTTTCGAGTAAACAAATTTTCCTAATCTTTCTGTTCAAGCGCCATCTAC”, 1.17 RPM ratio (pull-down/input).
The same measure for “GATGATTGTTCTCCCAGCTGATGAATTACCGCATTCGAGTAAACAAATTTTCCTAATCTTTCTGTTCAAGCGCCATCTAC”: 1.19 RPM ratio (pull-down/input); for “GATGATTGTTCTCCCAGCTGATGAATTTCGGTTGTCGAGTAAACAAATTTTCCTAATCTTTCTGTTCAAGCGCCATCTAC”: 1.03 RPM ratio (pull-down/input); for “GATGATTGTTCTCCCAGCTGATGAATTTGCGGGATCGAGTAAACAAATTTTCCTAATCTTTCTGTTCAAGCGCCATCTAC”: 0.948 RPM ratio (pull-down/input).
For the sequence “GATGATTGTTCTCCCAGCTGATGAATTACCTGCGTCGAGTAAACAAATTTTCCTAATCTTTCTGTTCAAGCGCCATCTAC”, the binding signal was 1.09 RPM ratio (pull-down/input).
To “GATGATTGTTCTCCCAGCTGATGAATTGCTATTATCGAGTAAACAAATTTTCCTAATCTTTCTGTTCAAGCGCCATCTAC” belongs 1.8 RPM ratio (pull-down/input).
Regarding “GATGATTGTTCTCCCAGCTGATGAATTCAAAACATCGAGTAAACAAATTTTCCTAATCTTTCTGTTCAAGCGCCATCTAC”, the binding signal is 1.99 RPM ratio (pull-down/input).
Take “GATGATTGTTCTCCCAGCTGATGAATTGACGCTTTCGAGTAAACAAATTTTCCTAATCTTTCTGTTCAAGCGCCATCTAC”: the binding signal is 1.33 RPM ratio (pull-down/input).
The same measure for “GATGATTGTTCTCCCAGCTGATGAATTCCGTCCCTCGAGTAAACAAATTTTCCTAATCTTTCTGTTCAAGCGCCATCTAC”: 0.782 RPM ratio (pull-down/input).
To “GATGATTGTTCTCCCAGCTGATGAATTGGTACTATCGAGTAAACAAATTTTCCTAATCTTTCTGTTCAAGCGCCATCTAC” belongs 1.06 RPM ratio (pull-down/input); to “GATGATTGTTCTCCCAGCTGATGAATTGCGGTACTCGAGTAAACAAATTTTCCTAATCTTTCTGTTCAAGCGCCATCTAC”, 1.07 RPM ratio (pull-down/input); to “GATGATTGTTCTCCCAGCTGATGAATTACGATACTCGAGTAAACAAATTTTCCTAATCTTTCTGTTCAAGCGCCATCTAC”, 1.13 RPM ratio (pull-down/input).
To “GATGATTGTTCTCCCAGCTGATGAATTATAAAATTCGAGTAAACAAATTTTCCTAATCTTTCTGTTCAAGCGCCATCTAC” belongs 1.05 RPM ratio (pull-down/input); to “GATGATTGTTCTCCCAGCTGATGAATTTGACCTCTCGAGTAAACAAATTTTCCTAATCTTTCTGTTCAAGCGCCATCTAC”, 0.806 RPM ratio (pull-down/input); to “GATGATTGTTCTCCCAGCTGATGAATTGTCGTTGTCGAGTAAACAAATTTTCCTAATCTTTCTGTTCAAGCGCCATCTAC”, 1.38 RPM ratio (pull-down/input).
In the case of “GATGATTGTTCTCCCAGCTGATGAATTCCACAGGTCGAGTAAACAAATTTTCCTAATCTTTCTGTTCAAGCGCCATCTAC”, the binding signal is 0.798 RPM ratio (pull-down/input).
The same measure for “GATGATTGTTCTCCCAGCTGATGAATTCCCTTCATCGAGTAAACAAATTTTCCTAATCTTTCTGTTCAAGCGCCATCTAC”: 0.855 RPM ratio (pull-down/input); for “GATGATTGTTCTCCCAGCTGATGAATTGCCTTCTTCGAGTAAACAAATTTTCCTAATCTTTCTGTTCAAGCGCCATCTAC”: 0.996 RPM ratio (pull-down/input).
“GATGATTGTTCTCCCAGCTGATGAATTGTGATCGTCGAGTAAACAAATTTTCCTAATCTTTCTGTTCAAGCGCCATCTAC”: the binding signal was 1.16 RPM ratio (pull-down/input).
To “GATGATTGTTCTCCCAGCTGATGAATTGCAATTTTCGAGTAAACAAATTTTCCTAATCTTTCTGTTCAAGCGCCATCTAC” belongs 1.59 RPM ratio (pull-down/input); to “GATGATTGTTCTCCCAGCTGATGAATTTGGTGACTCGAGTAAACAAATTTTCCTAATCTTTCTGTTCAAGCGCCATCTAC”, 0.903 RPM ratio (pull-down/input); to “GATGATTGTTCTCCCAGCTGATGAATTAGTTTTCTCGAGTAAACAAATTTTCCTAATCTTTCTGTTCAAGCGCCATCTAC”, 1.06 RPM ratio (pull-down/input).

Values taken from PMC12820563, “FoxP3 forms a head-to-head dimer in vivo and stabilizes its multimerization on adjacent microsatellites”.
